Laboratory results taken from PubChem BioAssay AID624202 (National Center for Advancing Translational Sciences (NCATS), 2012).
About 4,000 (1.1%) of roughly 380,000 compounds were called active. Inconclusive means that the source gave no clear call. Such entries were picked first, then a sample of the others. Calls come from the whole dose curve; as a rule, active = well fitted activation curve with a large enough effect; inconclusive = small, poorly fitted or top-dose-only effect; inactive = no such curve, though single readings can be large or run the other way. Where the call is inconclusive, the potency comes from a doubtful curve fit.

assay: qHTS Assay to Identify Small Molecule Activators of BRCA1 Expression; details: MCF7-BRCA1-FFLuc reporter, luminescence, 48 h; activation: at 46.1 µM (top of the series), scaled: vehicle 0%, 10 µM genistein 100% unless noted; note: nearly all actives have a fitted effect of over 80% in size
Method in brief: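 Activators of BRCA1 expression were detected as increased firefly luciferase luminescence in engineered MCF7 cells after 48 h compound incubation. Signals were scaled to genistein 10 microM as full activation.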
Potency is the fitted concentration of half-maximal effect; tags give direction and shape of the fitted curve.

| SMILES | Potency | activation |
| --- | --- | --- |
| Cc1cccc(NC(=O)c2ccc(N3CCOCC3)c([N+](=O)[O-])c2)n1 | inconclusive: 14.1 µM [activator, partial curve, poor fit] |  |
| COCCCNC(=O)C1CCN(C(=O)c2oc3cc4sc(N(C)C)nc4cc3c2C)CC1 | active: 11.2 µM |  |
| Cc1ccnc(NC(=O)CCNC(=O)c2ccc(Cl)cc2)c1 | active: 12.6 µM |  |
| O=C(Nc1nc2c(s1)CN(Cc1ccccc1)CC2)c1c(F)cccc1F | inconclusive: 20 µM [activator, single point] |  |
| O=C(Nc1cc(Cl)ccc1O)c1cc(-c2ccco2)on1 | active: 6.31 µM |  |
| CC1CCc2sc(-c3n[nH]c(=S)o3)cc2C1 (stereo not given) | inconclusive: 10 µM [activator, partial curve, poor fit] |  |
| O=C(Nc1ccc(Cl)cc1F)c1ccccc1Br | inconclusive: 2.24 µM [activator, full curve, poor fit] |  |
| CC1(C)CC(=O)C(C(=O)/C=C/NCCc2ccccc2)C(=O)C1 |  | inactive: -20.5% |
| Nc1nnc(-c2ccc(Cl)c(Cl)c2)s1 | inconclusive: 25.1 µM [activator, single point] |  |
| CC(=O)N1N=C(c2ccc(Br)cc2)CC1c1ccc(Br)cc1 (stereo not given) | inconclusive: 17.8 µM [activator, single point] |  |
| CN1CCN(c2ccc(-c3cccc(NC(=O)COc4ccccc4)c3)nn2)CC1 | inconclusive: 1 µM [activator, full curve, poor fit] |  |
| C1CCN=C(Nc2nc3c(s2)CCCC3)CC1 | inconclusive: 11.2 µM [activator, partial curve, poor fit] |  |
| O=C(Nc1ccc(N2CCOCC2)c2nonc12)C1CCCC1 | inconclusive: 12.6 µM [activator, single point] |  |
| COc1ccc(C(=O)N2CCC(n3c(C)nc4cc(F)ccc43)CC2)cc1 |  | inactive: -6.22% |
| Cn1cccc1-c1cc(C(=O)N/N=C/c2ccc([N+](=O)[O-])cc2)[nH]n1 |  | inactive: -45.2% |
| O=C(/C=C/c1ccccc1)Nc1cccnc1 | inconclusive: 12.6 µM [activator, partial curve, poor fit] |  |
| COc1ccccc1-n1cc(C(=O)NCC(=O)N2CCN(c3ccccc3)CC2)c2ccccc2c1=O | active: 12.6 µM |  |
| CCN1C(=O)C(CC(=O)Nc2ccc(OC)cc2)N(CCc2ccccc2F)C1=S (stereo not given) |  | inactive: -54.1% |
| COc1cc(OC)cc(-c2cc3cc(F)ccc3cn2)c1 | inconclusive: 5.62 µM [activator, full curve, poor fit] |  |
| CSCc1ccc(C(=O)Nc2cc(C)cc(C)c2)cc1 | inconclusive: 8.91 µM [activator, partial curve, poor fit] |  |
| Cc1c(C(=S)Nc2ccccc2)cnn1-c1ccc([N+](=O)[O-])cc1 |  | inactive: -30.3% |
| O=C(Nc1cccc2cccnc12)c1c(Cl)cc(Cl)cc1Cl |  | inactive: -13.3% |
| Cc1cc(C)nc(N/N=C/C(Cl)=C/c2ccccc2)n1 | active: 10 µM |  |
| Cc1nc(NCCc2ccccc2)sc1C(=O)O | inconclusive: 11.2 µM [activator, partial curve, poor fit] |  |
| COc1ccc(C(=O)c2oc3ccc(OC)cc3c2N)cc1 | active: 5.01 µM |  |

| SMILES | Potency | activation |
| --- | --- | --- |
| Cc1cc(-c2ccccc2)n(-c2ccccc2)n1 | active: 8.91 µM |  |
| COc1ccccc1OC1=NS(=O)(=O)c2ccccc21 |  | inactive: -17.7% |
| Nc1nc2ccccc2n1/N=C/c1ccc2c(c1)OCO2 | active: 5.62 µM |  |
| Cc1cccc(C(=O)NC2CCCCCCC2)c1 | inconclusive: 6.31 µM [activator, full curve, poor fit] |  |
| S=C(c1ccc(N2CCCC2)cc1)N1CCCCC1 |  | inactive: 27.7% |
| CCOc1ccc(NC(=O)c2c(N)n(C)c(=O)[nH]c2=O)cc1 | inconclusive: 12.6 µM [activator, single point] |  |
| NS(=O)(=O)c1ccc(CCNC(=O)c2ccc(Cl)cc2[N+](=O)[O-])cc1 |  | inactive: -10.3% |
| Fc1ccc(-c2ccnc3nc(N4CCOCC4)nn23)cc1 |  | inactive: 13.4% |
| Cn1cnc(S(=O)(=O)NCc2ccc(Br)cc2)c1 |  | inactive: 0% |
| CCCCN1C(=O)/C(=C/C=C2/CC(C)(C)CN2C)SC1=S | active: 10 µM |  |
| COc1ccc(C(=O)/C=C(\C)Nc2ccc3c(c2)OCO3)cc1 | inconclusive: 14.1 µM [activator, partial curve, poor fit] |  |
| N#C/C(C(=O)N1CCOCC1)=C1\Nc2ccccc2S1 | inconclusive: 15.8 µM [activator, single point] |  |
| CCN(CC)Cc1nc2c(c(=O)[nH]1)C(CC)(CC)Cc1ccccc1-2 |  | inactive: -21.2% |
| COc1ccc(-c2ccc(SCC(=O)NC3CCCCC3)nn2)cc1 | inconclusive: 2 µM [activator, full curve, poor fit] |  |
| O=C(c1cccc([N+](=O)[O-])c1)c1ccc2[nH]c(=O)[nH]c2c1 | inconclusive: 31.6 µM [activator, single point] |  |
| O=C1CCC(O)CCN1CCSc1ccccc1 (stereo not given) | inconclusive: 14.1 µM [activator, single point] |  |
| CCOC(=O)COc1ccccc1C1Nc2ccccc2C(=O)N1c1cccc(Cl)c1 (stereo not given) | inconclusive: 22.4 µM [activator, single point] |  |
| COc1ccc(NC(=O)c2ccccc2NC(=O)CSc2ccc(Cl)cc2)cc1 | inconclusive: 10 µM [activator, partial curve, poor fit] |  |
| CCOC(=O)c1c(Cc2ccc(Cl)cc2)c[nH]c1C | inconclusive: 17.8 µM [activator, partial curve, poor fit] |  |
| Cc1onc(-c2c(F)cccc2Cl)c1C(=O)N1CCc2ccccc21 |  | inactive: -21.5% |
| CC(=O)NCCc1nc2cc(NC(=O)c3ccccc3Cl)ccc2n1C | inconclusive: 14.1 µM [activator, partial curve, poor fit] |  |
| Clc1ccc(CSc2nnc3ccccn23)c(Cl)c1 | active: 10 µM |  |
| COc1ccc(/C=C/c2ccncc2)cc1 | active: 10 µM |  |
| CCOc1cc(C2Nc3cccc4cccc(c34)N2)ccc1O |  | inactive: -20.2% |
| COc1cc(SC)ccc1C(=O)Nc1ncc(C)s1 |  | inconclusive: -51.1% [activator] |
